Screen size: about 310,000 compounds; about 14,000 (4.5%) showed an effect of 50% or more. The effect is printed as a negative number. This is one part of the list.
Each compound was assayed against human ether-à-go-go-related gene (hERG) potassium channel (human, UniProt Q12809) (assay: primary screen, population patch clamp on CHO cells stably expressing hERG).
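Note: peak tail current of the secondary pulse compared with the same well before compound.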

human ether-à-go-go-related gene (hERG) potassium channel, sequence (Q12809 whole entry, looked up): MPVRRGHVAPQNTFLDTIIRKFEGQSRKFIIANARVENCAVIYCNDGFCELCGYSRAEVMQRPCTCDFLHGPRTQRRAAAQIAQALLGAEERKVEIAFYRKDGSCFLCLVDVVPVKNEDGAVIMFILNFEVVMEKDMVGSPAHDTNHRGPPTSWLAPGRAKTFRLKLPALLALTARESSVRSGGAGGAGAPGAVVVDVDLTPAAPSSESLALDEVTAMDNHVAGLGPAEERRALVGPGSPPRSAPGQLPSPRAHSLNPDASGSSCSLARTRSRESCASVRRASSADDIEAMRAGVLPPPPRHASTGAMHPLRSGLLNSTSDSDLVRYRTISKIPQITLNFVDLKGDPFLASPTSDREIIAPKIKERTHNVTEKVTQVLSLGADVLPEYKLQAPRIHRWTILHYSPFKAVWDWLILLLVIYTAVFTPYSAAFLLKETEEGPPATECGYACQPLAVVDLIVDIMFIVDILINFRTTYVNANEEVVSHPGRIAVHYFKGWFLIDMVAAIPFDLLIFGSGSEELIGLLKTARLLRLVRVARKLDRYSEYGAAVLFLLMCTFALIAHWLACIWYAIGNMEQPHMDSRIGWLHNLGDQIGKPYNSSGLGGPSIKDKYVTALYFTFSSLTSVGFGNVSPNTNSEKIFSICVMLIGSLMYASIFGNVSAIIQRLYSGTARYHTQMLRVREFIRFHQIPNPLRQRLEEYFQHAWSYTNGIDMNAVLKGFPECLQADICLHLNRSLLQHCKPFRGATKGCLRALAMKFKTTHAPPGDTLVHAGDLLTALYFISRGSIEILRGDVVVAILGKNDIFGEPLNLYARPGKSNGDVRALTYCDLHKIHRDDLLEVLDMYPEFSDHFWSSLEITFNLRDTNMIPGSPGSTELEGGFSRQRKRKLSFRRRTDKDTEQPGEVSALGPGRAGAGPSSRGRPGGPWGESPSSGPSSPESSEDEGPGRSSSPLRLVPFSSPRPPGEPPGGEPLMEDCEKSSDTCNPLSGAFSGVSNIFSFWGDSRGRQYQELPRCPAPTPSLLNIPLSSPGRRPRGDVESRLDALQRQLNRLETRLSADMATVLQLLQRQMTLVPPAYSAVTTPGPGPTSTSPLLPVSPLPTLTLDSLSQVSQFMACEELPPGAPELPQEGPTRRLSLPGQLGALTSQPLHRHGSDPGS

First: NC(=O)CSCc1cccc(Br)c1
Second: Cn1c(CNC(=O)c2ccco2)nnc1SCC(=O)c1ccc(Br)cc1
The “hERG current change (%, negative = inhibition) at 10uM” value of the first is higher: 14.2% for the first, -33.9% for the second.

Compared with COc1ccc(NC(=O)CN2CCCCC2)cc1.O=C(O)C(=O)O, COC(=O)c1sccc1NC(=S)N1CCCCC1 is higher in “hERG current change (%, negative = inhibition) at 10uM” value: 3.8% for the first, 5.34% for the second.

Compared with C=CCOc1cccc(/C=C2\C(=O)N(Cc3ccc(C)cc3)C(C)=C2C(=O)OC)c1, CCc1nn(CCCC(=O)NCc2ccc(C)cc2)c(=O)c2cc3occc3n12 is lower in “hERG current change (%, negative = inhibition) at 10uM” value: 10.5% for the first, -8.1% for the second.

Going from Cc1cc(C(=O)N2CCN(C/C=C/c3ccccc3)CC2)no1 to Cc1nn(C)cc1CN1CCCC(C(=O)c2ccc(-c3ccccc3)cc2)C1 (centres unmarked), the “hERG current change (%, negative = inhibition) at 10uM” value falls from -14.5% to -45.4%.

First: Cl.N=c1sccn1CC(=O)NCc1ccc(Cl)cc1Cl
Second: S=C(NCCSCc1ccc(Cl)cc1Cl)Nc1ccccc1
The “hERG current change (%, negative = inhibition) at 10uM” value of the first is lower: -9.89% for the first, 4.75% for the second.

Going from O=C(Nc1ccccc1C(=O)Nc1ccncc1)c1ccc([N+](=O)[O-])cc1 to Cc1ccc(C)c(OCC(=O)Nc2ccc(S(=O)(=O)Nc3ccccn3)cc2)c1, the “hERG current change (%, negative = inhibition) at 10uM” value rises from -4.77% to 10.8%.

Compared with COC(=O)c1cc(OC)c(OC)cc1NC(=O)c1cccc(C)c1, CCc1ccccc1NC(=O)C(Cc1cccc(OC)c1OC)c1nn[nH]n1 (centres unmarked) is higher in “hERG current change (%, negative = inhibition) at 10uM” value: -1.82% for the first, 7.41% for the second.

First: CC(C)(C)NC(=O)CC(c1ccccc1)c1ccccc1O (centres unmarked)
Second: CC(CN(C)Cc1ccccc1)OC(=O)c1ccccc1F.Cl (centres unmarked)
The “hERG current change (%, negative = inhibition) at 10uM” value of the first is lower: -3.84% for the first, -2.3% for the second.

Going from Cn1ncc(Br)c1N1C(=O)CCC1=O to O=C1CC(N2CCc3ccccc32)C(=O)N1c1ccccc1 (centres unmarked), the “hERG current change (%, negative = inhibition) at 10uM” value rises from 4.51% to 10.7%.

First: Cc1ccc2c([N+](=O)[O-])cccc2n1
Second: CCC(C)(C)c1nnc(NC(=O)c2cccc([N+](=O)[O-])c2)s1
The “hERG current change (%, negative = inhibition) at 10uM” value of the first is higher: -0.127% for the first, -4.76% for the second.

Compared with Br.COc1ccc(N=C/C=C2\C=C(c3ccccc3)OC(C)(C)O2)cc1, COc1ccc(C#Cc2c(C=O)n(C)c3ccccc23)cc1 is higher in “hERG current change (%, negative = inhibition) at 10uM” value: -23.7% for the first, 8.7% for the second.

First: C[C@H]1CCC[C@@]2(O[C@@H](CCO)C[C@@H](O)[C@@H]2O)O1
Second: COCC(=O)N1CCC(Oc2ccc(C(=O)NCc3csc(C(C)C)n3)cc2)CC1
The “hERG current change (%, negative = inhibition) at 10uM” value of the first is lower: 4.31% for the first, 43.1% for the second.

Going from CCCOc1ccc(N2C(=O)CC(N3CCN(c4ccccc4OC)CC3)C2=O)cc1 (centres unmarked) to COc1cc(CCC(=O)N2CCN(c3ccc([N+](=O)[O-])cc3)CC2)cc(OC)c1OC, the “hERG current change (%, negative = inhibition) at 10uM” value falls from -26.3% to -78.4%.

First: Cn1c(=O)c2c(ncn2CC(=O)N2CCN(S(=O)(=O)c3ccc(Cl)cc3)CC2)n(C)c1=O
Second: O=C(CN1C(=O)NC2(CCCC2)C1=O)N1CCN(S(=O)(=O)c2ccc(Cl)c(C(F)(F)F)c2)CC1
The “hERG current change (%, negative = inhibition) at 10uM” value of the first is higher: -2.15% for the first, -11.8% for the second.

Going from Cc1cc(NS(=O)(=O)c2ccc(NC(=O)C(C)Oc3ccc4c(C)cc(=O)oc4c3)cc2)no1 (centres unmarked) to COc1cc(OC)cc(-c2nc3ccccc3c(=O)n2OC(=O)c2ccccc2C)c1, the “hERG current change (%, negative = inhibition) at 10uM” value rises from -2.43% to 10.6%.

Going from O=c1[nH]n(-c2cccc(Cl)c2)c2ncccc12 to CCOc1nc(NC(=O)NS(=O)(=O)c2cccc(Cl)c2)nc(-c2ccccc2)n1, the “hERG current change (%, negative = inhibition) at 10uM” value falls from 6.21% to -3.13%.

Going from O=C(C1CCCN(S(=O)(=O)c2cccc3nsnc23)C1)N1CCc2ccccc2C1 (centres unmarked) to CCc1ccccc1NC(=O)N1CCc2ccccc2C1, the “hERG current change (%, negative = inhibition) at 10uM” value rises from -38.9% to 8.21%.

First: Cc1ccc(NC(=O)NC2CCCCCCC2)cc1C
Second: COc1ccc(N(CC(=O)NC2CCCC2)C(=O)CS(=O)CC(=O)Nc2ccc3c(c2)OCO3)cc1 (centres unmarked)
The “hERG current change (%, negative = inhibition) at 10uM” value of the first is higher: 11.3% for the first, -2.1% for the second.

Compared with O=C(CSc1n[nH]c(-c2ccco2)n1)N1c2ccccc2Sc2ccccc21, O=C1COc2ccc(C(=O)CSc3nnc(Cc4cccs4)n3-c3ccccc3)cc2N1 is lower in “hERG current change (%, negative = inhibition) at 10uM” value: 11.2% for the first, -38.3% for the second.

Going from COc1cc(C(=O)Nc2cc(C(F)(F)F)ccc2N2CCOCC2)ccc1OCC(=O)N1CCOCC1 to COCC1CCN(C(=O)c2ccc(OC3CCN(Cc4ccccn4)CC3)cc2)C1 (centres unmarked), the “hERG current change (%, negative = inhibition) at 10uM” value rises from -17.6% to -10.6%.

First: O=C(N/N=C/c1ccc2c(c1)OCO2)/C(=C/c1ccc2c(c1)OCO2)NC(=O)c1ccccc1
Second: COc1ccc(-c2nsc(SCC(=O)Nc3ccc4c(c3)OCO4)n2)cc1
The “hERG current change (%, negative = inhibition) at 10uM” value of the first is lower: -20.7% for the first, 20% for the second.

Compared with COc1ccccc1-c1ccc(=O)n(CC(=O)NCc2cccs2)n1, CCN(CC)S(=O)(=O)c1ccc(C(=O)OCn2nnc3ccccc3c2=O)cc1 is lower in “hERG current change (%, negative = inhibition) at 10uM” value: -0.87% for the first, -6.69% for the second.

First: CCOC(=O)c1cnc(SC)nc1N
Second: COC(=O)CSc1nc(C)c(C(C)=O)cc1C#N
The “hERG current change (%, negative = inhibition) at 10uM” value of the first is higher: -4.94% for the first, -8.09% for the second.

First: CC(C)n1c(CCC(=O)O)ccc1-c1ccccc1
Second: CC(NC(c1ccccc1)c1ccccc1)C(=O)N1CCCc2ccccc21 (centres unmarked)
The “hERG current change (%, negative = inhibition) at 10uM” value of the first is higher: 10.1% for the first, -0.438% for the second.

Compared with COc1cccc(/C(O)=C2/C(=O)C(=O)N(CCN(C)C)C2c2ccc(Br)cc2)c1 (centres unmarked), O=C1c2oc3ccccc3c(=O)c2C(c2cccc(Br)c2)N1Cc1ccco1 (centres unmarked) is lower in “hERG current change (%, negative = inhibition) at 10uM” value: 11.3% for the first, -8.64% for the second.

Compared with Cc1cccc(NC(=O)OC2CN3CCC2CC3)c1 (centres unmarked), O=C(CN1CCN(c2cccc(Cl)n2)CC1)N1CC(O)CO1 (centres unmarked) is higher in “hERG current change (%, negative = inhibition) at 10uM” value: -9.77% for the first, 19.6% for the second.

Compared with O=C(CCCl)Nc1nnc(SCC(=O)NC2CCCC2)s1, COc1ccc(S(=O)(=O)NC(C)C(=O)N2CCCC2)cc1Cl (centres unmarked) is higher in “hERG current change (%, negative = inhibition) at 10uM” value: 3.7% for the first, 5.12% for the second.

Going from Brc1cc2c(cc1CSc1ncccn1)OCO2 to Nc1ccc(Oc2ccc(Br)cc2)cc1, the “hERG current change (%, negative = inhibition) at 10uM” value falls from 20.1% to -4.61%.

Source: paper PMC4336329 (PLoS ONE, 2015)
